In publication PMC6212790:
This is one part of the list. At the low end of the ranking the order means little.

These sequences were tested against T1, GST-Rok-C97-191 (UniProt O34857) (assay: protein binding microarray). Conditions: Rok is a gene silencer of Bacillus subtilis; high values mean tight binding; most listed sequences are background and not binding sites; double strand, one strand shown.
T1 sequence: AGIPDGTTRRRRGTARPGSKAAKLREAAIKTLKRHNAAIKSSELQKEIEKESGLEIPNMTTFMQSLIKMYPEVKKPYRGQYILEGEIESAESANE
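Also: rank score from −0.5 (least bound) to 0.5 (best bound).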

Row | Sequence | binding signal
1 | CGCGAATC | -0.0806 E-score
2 | CATAGCCG | -0.0886 E-score
3 | AGGATTCG | -0.0164 E-score
4 | GGCAGAGA | -0.173 E-score
5 | CTCTGCGA | -0.127 E-score
6 | ATCGCTTC | 0.0344 E-score
7 | GTTTCAAA | -0.0851 E-score
8 | ACTACCGG | 0.185 E-score
9 | CTCGGAAA | 0.0625 E-score
10 | AGGTCCCC | -0.331 E-score
11 | AAATAGCA | 0.0458 E-score
12 | CCGCAAAA | -0.142 E-score
13 | ACGACTAG | 0.0982 E-score
14 | AACACCTA | 0.129 E-score
15 | AGATGAGA | 0.041 E-score
16 | ATCCGCAT | 0.0779 E-score
17 | ATGTACGG | 0.123 E-score
18 | TCTTACAA | 0.00543 E-score
19 | GTATCGAC | 0.115 E-score
20 | CGTCAACA | -0.0547 E-score
21 | GGACTCGA | -0.263 E-score
22 | ACTTGTAG | 0.169 E-score

Row | Sequence | binding signal
23 | ACTCAGCG | -0.103 E-score
24 | AACGGTGC | -0.117 E-score
25 | TCTAAGAA | 0.0112 E-score
26 | CGCACGTC | -0.0426 E-score
27 | CATTAGGA | -0.0893 E-score
28 | GGAGCCAA | -0.252 E-score
29 | AGTTGGAG | -0.16 E-score
30 | CTCTATGC | -0.0298 E-score
31 | ATACACCC | 0.196 E-score
32 | TCCGGTAA | 0.0864 E-score
33 | GCCTTAAC | -0.123 E-score
34 | AGTCCAAA | 0.0168 E-score
35 | GAGCGGAC | -0.221 E-score
36 | CCCAGCCC | -0.431 E-score
37 | CCAGGTCC | -0.244 E-score
38 | GATTAATC | 0.0344 E-score
39 | GTGTTTAA | 0.0401 E-score
40 | CAAGGTCA | -0.126 E-score
41 | AGCCGCTA | -0.00769 E-score
42 | CATGTACA | 0.317 E-score
43 | CGAGAAGA | -0.0403 E-score
44 | CGGTGAGA | -0.114 E-score

Row | Sequence | binding signal
45 | AGGTTGAC | -0.092 E-score
46 | GACTTCCA | 0.197 E-score
47 | CGTATTAG | -0.0272 E-score
48 | GCCCTTCA | -0.205 E-score
49 | TCGATAAA | 0.205 E-score
50 | GATCTTTA | 0.0566 E-score
51 | ATCCAAAT | 0.0489 E-score
52 | GCGTGATA | 0.108 E-score
53 | AAATAGGT | 0.314 E-score
54 | AATTTCCG | 0.0324 E-score
55 | AGGCCCTA | -0.204 E-score
56 | AGCCCGGG | -0.179 E-score
57 | GCGCCTTA | -0.24 E-score
58 | ATACATCG | 0.17 E-score
59 | ATGGATTG | -0.219 E-score
60 | ACGGACTG | -0.123 E-score
61 | ATCGGTGG | -0.0827 E-score
62 | TGCGTTAA | -0.134 E-score
63 | TCCACCGA | -0.173 E-score
64 | TACGAGGA | -0.119 E-score
65 | ACAGATGT | -0.0201 E-score
66 | AGCAGAGG | -0.215 E-score

Row | Sequence | binding signal
67 | GACCAACA | -0.0266 E-score
68 | AGCACGCA | -0.111 E-score
69 | AAACGACA | 0.141 E-score
70 | ACTACGAC | 0.0766 E-score
71 | ATCGTGAC | -0.179 E-score
72 | CTGTGCTA | -0.119 E-score
73 | CGATAGCC | -0.0659 E-score
74 | CCGACTGA | -0.0764 E-score
75 | AACTTTAC | 0.0803 E-score
76 | ATCAGGTC | 0.0134 E-score
77 | GGCGGCAA | -0.246 E-score
78 | CAGTTCTA | 0.271 E-score
79 | ATCCGACC | -0.323 E-score
80 | CTTAACCA | -0.0422 E-score
81 | TTTAAAAA | 0.00271 E-score
82 | ACACAAAG | 0.0993 E-score
83 | ACGACGAT | 0.0985 E-score
84 | CACTAAGG | -0.084 E-score
85 | GCTCGGCA | -0.219 E-score
86 | CATATCTA | 0.34 E-score
